Consider 28 molecules from the antibiotic and cytotoxicity screens of Wong et al. (2023).

This is one part of the list.

One assay deals with HSkMC. The assay is described as follows: cytotoxicity call (relative viability < 0.9). As to conditions: 10 µM.
The next assay concerns HepG2. The assay is described as follows: cytotoxicity call (relative viability < 0.9). The following applies: 10 µM.
For another assay, the system named is S. aureus RN4220. Description: growth inhibition call (relative growth <= 0.2). As to conditions: 50 µM.

Consider `C[C@H]1CN([C@@H](C)CO)C(=O)c2cc(NC(=O)Cc3ccccc3)ccc2O[C@@H]1CN(C)Cc1ccc(Oc2ccccc2)cc1`, for which, in the assay with HSkMC, the cytotoxicity call was “inactive”. Also, the cytotoxicity call in the assay with HepG2 was “active”. In the assay with S. aureus RN4220, the growth inhibition call was “inactive”.

Regarding `COc1ccc(NC(=O)N(C)C[C@@H]2Oc3ncc(C#CCN(C)C)cc3C(=O)N([C@H](C)CO)C[C@H]2C)cc1`, the cytotoxicity call in the assay with HSkMC and with HepG2 was “inactive” throughout. Moreover, in the assay with S. aureus RN4220, the growth inhibition call is “inactive”.

Regarding `C[C@@H]1CCCCO[C@@H](CN(C)Cc2ccc(Cl)c(Cl)c2)[C@H](C)CN([C@H](C)CO)C(=O)c2cc(NC(=O)Nc3ccc(F)cc3)ccc2O1`, the cytotoxicity call in the assay with HSkMC and with HepG2 was “inactive” each time. Besides, the growth inhibition call with S. aureus RN4220 was “inactive”.

Consider `COCC#Cc1ccc2c(c1)O[C@H](CN(C)Cc1ccc3c(c1)OCO3)[C@H](C)CN([C@@H](C)CO)S2(=O)=O`, for which the cytotoxicity call with HSkMC and in the assay with HepG2 was “inactive” throughout. Besides, in the assay on S. aureus RN4220, the growth inhibition call is “inactive”.

For the molecule `Nc1nnc([C@H]2CCCO2)o1`, the cytotoxicity call in the assay with HSkMC and with HepG2 was “inactive” in each case. Also, the growth inhibition call in the assay with S. aureus RN4220 is “inactive”.

Turning to `CC(C)CNC(=O)[C@@H]1c2ccccc2C(=O)N(Cc2ccccc2C(F)(F)F)[C@H]1c1ccc(CO)cc1`, the cytotoxicity call with HSkMC and in the assay on HepG2 was “inactive” in each case. The growth inhibition call in the assay on S. aureus RN4220 is “inactive”.

`CO[C@@H]1CN(C)C(=O)c2cc(NS(=O)(=O)c3cn(C)cn3)ccc2OC[C@@H](C)N(Cc2cccc(F)c2)C[C@H]1C`: the cytotoxicity call with HSkMC and with HepG2 was “inactive” in each case. Besides, the growth inhibition call in the assay on S. aureus RN4220 was “inactive”.

For `COc1cccc(NC(=O)N(C)C[C@H]2Oc3ncc(Br)cc3C(=O)N([C@H](C)CO)C[C@H]2C)c1`, the cytotoxicity call with HSkMC and in the assay on HepG2 was “inactive” in each case. Further, the growth inhibition call with S. aureus RN4220 is “inactive”.

For `C[C@@H]1CN([C@H](C)CO)C(=O)c2cc(-c3cccnc3)cnc2O[C@@H]1CN(C)Cc1ccc(Oc2ccccc2)cc1`, the cytotoxicity call with HSkMC and in the assay on HepG2 was “inactive” throughout. In the assay on S. aureus RN4220, the growth inhibition call is “inactive”.

`COC(=O)C[C@H]1CC[C@H]2[C@H](COc3ccc(NS(=O)(=O)c4ccccc4Cl)cc3C(=O)N2C)O1`: the cytotoxicity call in the assay with HSkMC and with HepG2 was “inactive” throughout. Moreover, in the assay with S. aureus RN4220, the growth inhibition call was “inactive”.

For the molecule `CC1(C)[C@H](C(=O)O)CC[C@@]1(C)C(N)=O`, the cytotoxicity call in the assay on HSkMC and with HepG2 was “inactive” throughout. Moreover, in the assay with S. aureus RN4220, the growth inhibition call was “inactive”.

`COC(=O)Nc1nc2cc(C(=O)c3cccs3)ccc2[nH]1`: the cytotoxicity call with HSkMC and in the assay with HepG2 was “inactive” each time. For the same molecule, the growth inhibition call in the assay on S. aureus RN4220 was “inactive”.

In the case of `CO[C@@H]1CN(C)C(=O)c2ccc(NC(=O)CN(C)C)cc2OC[C@@H](C)N(C(=O)C2CCCCC2)C[C@H]1C`, the cytotoxicity call in the assay with HSkMC and with HepG2 was “inactive” in each case. The growth inhibition call with S. aureus RN4220 was “inactive”.

Regarding `Cc1c(O)c(=O)ccn1C`, the cytotoxicity call in the assay on HSkMC and in the assay on HepG2 was “inactive” throughout. Moreover, the growth inhibition call in the assay with S. aureus RN4220 is “inactive”.

As to `CC(C)C[C@@H]1C(=O)O[C@H](C)C(=O)N(C)[C@@H](CC(C)C)C(=O)O[C@H](Cc2ccc(N3CCOCC3)cc2)C(=O)N(C)[C@@H](CC(C)C)C(=O)O[C@H](C)C(=O)N(C)[C@@H](CC(C)C)C(=O)O[C@H](Cc2ccc(N3CCOCC3)cc2)C(=O)N1C`, the cytotoxicity call in the assay on HSkMC is “active”. The cytotoxicity call with HepG2 is “inactive”. The growth inhibition call in the assay on S. aureus RN4220 is “inactive”.

Consider `COc1ccc(S(=O)(=O)Nc2cccc3c2O[C@H](CN(C)S(=O)(=O)c2cccs2)[C@H](C)CN([C@@H](C)CO)C3=O)cc1`, for which the cytotoxicity call in the assay on HSkMC and with HepG2 was “inactive” in each case. In the assay with S. aureus RN4220, the growth inhibition call is “inactive”.

For `COc1ccc2c(c1)n(CCN)c(=O)n2C(=O)[C@@H]1C[C@H](C)CC[C@H]1C(C)C`, the cytotoxicity call in the assay with HSkMC and in the assay on HepG2 was “active” throughout. Further, the growth inhibition call with S. aureus RN4220 is “active”.

On to `C[C@H]1CN([C@@H](C)CO)C(=O)c2cc(C3=CCCC3)cnc2O[C@H]1CN(C)S(=O)(=O)c1cn(C)cn1`, for which the cytotoxicity call in the assay on HSkMC and in the assay with HepG2 was “inactive” each time. Also, the growth inhibition call in the assay with S. aureus RN4220 is “inactive”.

For the molecule `C[C@@H]1CN([C@H](C)CO)C(=O)c2cc(NC(=O)NC3CCCCC3)ccc2O[C@@H](C)CCCCO[C@@H]1CN(C)S(=O)(=O)c1ccc(Cl)cc1`, the cytotoxicity call with HSkMC and in the assay with HepG2 was “inactive” throughout. In addition, the growth inhibition call in the assay on S. aureus RN4220 was “inactive”.

For the molecule `CC(C)NC(=O)Nc1cccc2c1O[C@H](CN(C)Cc1ccc3c(c1)OCO3)[C@@H](C)CN([C@H](C)CO)C2=O`, the cytotoxicity call in the assay on HSkMC and in the assay with HepG2 was “inactive” throughout. For the same molecule, in the assay on S. aureus RN4220, the growth inhibition call is “inactive”.

`Cn1c(=O)c2cc(S(=O)(=O)NCCC(=O)NC3CCCC3)ccc2n(C)c1=O`: in the assay with HSkMC, the cytotoxicity call was “inactive”. In addition, in the assay on HepG2, the cytotoxicity call was “active”. Moreover, the growth inhibition call in the assay with S. aureus RN4220 is “inactive”.

With `C[C@H]1CN([C@@H](C)CO)C(=O)c2cccc(NC(=O)Nc3ccc4c(c3)OCO4)c2O[C@H]1CN(C)C(=O)Nc1cccc2ccccc12`, the cytotoxicity call in the assay with HSkMC and in the assay with HepG2 was “inactive” throughout. Besides, the growth inhibition call in the assay with S. aureus RN4220 is “inactive”.

As to `COc1ccc(S(=O)(=O)Nc2ccc3c(c2)C(=O)N([C@H](C)CO)C[C@H](C)[C@H](CN(C)C(=O)Nc2c(C)noc2C)O3)cc1`, the cytotoxicity call with HSkMC and in the assay on HepG2 was “inactive” throughout. In addition, the growth inhibition call with S. aureus RN4220 is “inactive”.

As for `CO[C@@H]1CN(C)C(=O)c2ccc(NC(=O)c3ccccc3)cc2OC[C@@H](C)N(C(=O)CN(C)C)C[C@H]1C`, the cytotoxicity call in the assay with HSkMC and in the assay on HepG2 was “inactive” in each case. The growth inhibition call with S. aureus RN4220 is “inactive”.

For the molecule `CCS(=O)(=O)NCC[C@H]1CC[C@@H](NC(=O)Cc2ccccn2)[C@H](CO)O1`, the cytotoxicity call in the assay on HSkMC and in the assay on HepG2 was “inactive” each time. In the assay with S. aureus RN4220, the growth inhibition call was “inactive”.

`C[C@@H]1CCCCO[C@H](CN(C)Cc2ccc3c(c2)OCO3)[C@@H](C)CN([C@H](C)CO)C(=O)c2cc(NS(=O)(=O)c3ccccc3)ccc2O1`: the cytotoxicity call in the assay with HSkMC and in the assay with HepG2 was “inactive” throughout. Besides, the growth inhibition call in the assay with S. aureus RN4220 was “inactive”.

Consider `COc1cccc(-c2ccc3c(c2)O[C@H](CN(C)C(=O)C2CCC2)[C@@H](C)CN([C@H](C)CO)S3(=O)=O)c1`, for which the cytotoxicity call with HSkMC and in the assay on HepG2 was “inactive” throughout. In the assay with S. aureus RN4220, the growth inhibition call is “inactive”.

Consider `C[C@@H]1CCCCO[C@@H](CN(C)S(=O)(=O)c2ccc(Cl)cc2)[C@H](C)CN([C@H](C)CO)C(=O)c2cc(NS(=O)(=O)c3cccs3)ccc2O1`, for which the cytotoxicity call in the assay on HSkMC (human skeletal muscle cells) was “inactive”. The cytotoxicity call with HepG2 was “active”. The growth inhibition call in the assay on S. aureus RN4220 is “inactive”.
